Out of some 7,900 compounds screened, about 400 (5.1%) showed an effect of 50% or more. This is one part of the list.
These compounds were tested against Parkinson's disease protein 7 (PARK7/DJ1) (human, UniProt Q99497) (assay: primary screen, percent inhibition; read as competition with a fluorescent probe by fluorescence polarization; higher = more effect of the substance). Details: 100 µM.
Chain of Parkinson's disease protein 7 (PARK7/DJ1) (Q99497 whole entry, looked up, the tested form may be a part): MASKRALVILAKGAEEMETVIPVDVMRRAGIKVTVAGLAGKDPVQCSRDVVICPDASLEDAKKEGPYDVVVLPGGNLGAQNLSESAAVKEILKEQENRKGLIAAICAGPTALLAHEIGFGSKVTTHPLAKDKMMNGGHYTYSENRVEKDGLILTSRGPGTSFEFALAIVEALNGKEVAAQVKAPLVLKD
Method: The screen was conducted using the conditions as described above in 1536-well plates (Corning 3724) with a reaction volume of 8 μL per well. The compound library containing 7887 covalent fragments was purchased at Enamine Ltd. and received as 100 mM DMSO stocks in 384 well LDV Echo plates (Labcyte LP-0200). Stock solutions of 0.26 μM PARK7 and 80 nM JYQ-107 were prepared. Using a Labcyte Echo550 acoustic dispenser, 8 nL of the DMSO stock solution of the library compounds was transferred from the source plates into the empty 1536-well screening plates to obtain a 100 μM final compound concentration. Next, PARK7 (6 μL, final concentration 0.2 μM) was dispensed using a Biotek MultiflowFX liquid dispenser and incubated for 2 h, followed by dispensing the probe JYQ-107 (2 μL, final concentration 20 nM). After 2 h incubation, the FP signal was recorded on a BMG Labtech PHERAstar plate reader (λex/em 480/520 nm). The relative loss of FP signal compared with reference controls was used to calculate the remaining enzyme activity.
With CC(C(=O)N1CCCC2CCCCC21)N1C(=O)CCC1=O (stereo not shown) the Inhibition % was 9.57%. Work on C=CC(=O)NC1CS(=O)(=O)C1 yielded an Inhibition % of 25.7%. For O=c1onc(-c2cccnc2)n1Cc1cc(F)cc(F)c1, the Inhibition % was 16.6%. C=CC(=O)N1C[C@@H](CO)[C@H](c2ccsc2)C1 gave an Inhibition % of 12.4%. With Cc1ccc(S)nn1 the Inhibition % was 28.1%. COc1ccc(S(=O)(=O)n2cnc(C)c2)c(C)c1C was tested, and the Inhibition % was 7.34%. O=C1NC2CCCCCCC12 (stereo not shown) showed an Inhibition % of 5.28%. For C=CC(=O)NCCc1ccc2c(c1)COC2, the Inhibition % was 9.48%. O=C1OCCC1Sc1nccc(C(F)(F)F)n1 (stereo not shown) showed an Inhibition % of 9.47%. Compound CC1(C)OB(c2ccc(N=S(C)(C)=O)cc2)OC1(C)C has an Inhibition % of 5.97%. Work on NC(=O)C1CCCN1S(=O)(=O)C=Cc1ccccc1Cl (stereo not shown) yielded an Inhibition % of -0.649%. With CN(C1CCCCC1)S(=O)(=O)c1ccc(S)nc1 the Inhibition % was 14.2%. With NC(=O)C1CCCN(C(=O)CCl)C1 (stereo not shown) the Inhibition % was 35.5%. Compound Cc1ccc(C=C(C#N)C(=O)NC2CCCCC2C)o1 (stereo not shown) has an Inhibition % of -2.33%. In the case of C=CC(=O)N1CCc2nnc(N(C)C)cc2C1, the Inhibition % is reported as 3.13%. Cc1ccc(C=C(C#N)C(=O)NCCc2ccccc2)o1 was tested, and the Inhibition % was 4.17%. Cc1ccc(C=C(C#N)S(C)(=O)=O)cc1 was tested, and the Inhibition % was 10.2%. In the case of CC1(C)OB(c2ccc3ccoc3c2)OC1(C)C, the Inhibition % is reported as 9.89%. In the case of C=CC(=O)N[C@@H](C)C(=O)Nc1cccnc1C, the Inhibition % is reported as 25.3%. Compound O=S1(=O)C=CC(Nc2cccc(C(F)(F)F)c2)C1 (stereo not shown) has an Inhibition % of 17.4%. In the case of Cc1cc2cc(B3OC(C)(C)C(C)(C)O3)ccc2[nH]1, the Inhibition % is reported as 6.59%. With C=CC(=O)N1CCOCC1CC(=O)c1ccco1 (stereo not shown) the Inhibition % was 5.89%. Work on Cc1ccsc1C=CC(=O)N1CCNC(=O)C1 yielded an Inhibition % of 4.4%. Compound CN(Cc1ccnn1C)C(=O)C=CC(=O)O has an Inhibition % of 17.1%. With C=CC(=O)N1CCOC(c2nncn2CC)C1 (stereo not shown) the Inhibition % was 1.87%. For Cc1nc(CN2CCN(C(=O)CCl)CC2)cs1.Cl, the Inhibition % was 10.9%. For Cn1ccc(Nc2ccc(S(=O)(=O)F)cn2)n1, the Inhibition % was 4.77%. CC1CCCN(C2CC(C)OC2=O)C1 (stereo not shown) showed an Inhibition % of 17%. With Cc1csc(C(C#N)C(=O)CCl)n1 (stereo not shown) the Inhibition % was 4.74%. Compound O=C(O)[C@H]1CCCN1C(=O)C=Cc1cncc(F)c1 has an Inhibition % of 2.07%. N#Cc1ncn(Cc2ccc(OCC(F)(F)F)cc2)n1 gave an Inhibition % of 7.91%. CC1CCc2c(sc(NC(=O)CCl)c2C#N)C1 (stereo not shown) showed an Inhibition % of 29.4%. Work on Cc1cc(C(=O)Cn2cnc(C#N)n2)c(C)n1C1CC1 yielded an Inhibition % of 17.1%. With O=C(CCl)Nc1cc(Cl)c(Cl)cc1Cl the Inhibition % was 4.48%. Work on Cc1ncsc1CCn1cnc(C(F)(F)F)c1C#N yielded an Inhibition % of 5.84%. N#Cc1nc(N[C@@H]2C=C[C@H](CO)C2)ccc1Cl showed an Inhibition % of 7.61%. With C=CC(=O)N1CC(COC)(c2ccccc2)C1 the Inhibition % was 11.2%. COc1ccc(-c2csc(NC(=O)CCl)n2)c(O)c1 showed an Inhibition % of 6.77%. Compound C=CC(=O)NC1CCC(C)(C)CC1C (stereo not shown) has an Inhibition % of -0.012%. C=CC(=O)NCc1c(F)cc(C)cc1F showed an Inhibition % of 5.28%. With CC(C)n1cc(C2NC(=O)C23CCOCC3)cn1 (stereo not shown) the Inhibition % was 6.3%. Compound C#CC(=O)Nc1cnn(CC(=O)O)c1 has an Inhibition % of 25.4%. Work on O=C(NCc1nc(C2CC2)cs1)c1cccnc1S yielded an Inhibition % of 2.33%. Compound N#Cc1ncn(CCC(=O)Nc2cccc(Cl)c2)n1 has an Inhibition % of 3.5%. Cc1cc(NC(=O)CCl)n(C2CCS(=O)(=O)C2)n1 (stereo not shown) gave an Inhibition % of 32.6%. For O=C(OCc1ccccc1)N1CCCCC1CS(=O)(=O)F (stereo not shown), the Inhibition % was 16%. Work on C=CC(=O)N1CCC(NC(=O)C2CCC2)C1 (stereo not shown) yielded an Inhibition % of 8.54%. Work on C=CC(=O)NC1(c2ccccc2Cl)CC1 yielded an Inhibition % of 10.9%. Cc1nc(CN(C#N)c2ccc(F)cc2)no1 showed an Inhibition % of 9.23%. Work on CCN(C(=O)CCl)C(C)c1ccc(F)cc1 (stereo not shown) yielded an Inhibition % of 9.9%. Compound C=CC(=O)N1CCN(Cc2ccon2)CC1 has an Inhibition % of 4.28%. Work on Cc1cc(NC(=O)OC(C)(C)C)cc(B2OC(C)(C)C(C)(C)O2)c1 yielded an Inhibition % of -0.551%. For Cn1cnc2ccc(B3OC(C)(C)C(C)(C)O3)cc21, the Inhibition % was 5.09%. Compound O=C(CN1CCSC1=O)Nc1cc(F)ccc1F has an Inhibition % of 3.13%. Cc1ccccc1C1CO1 (stereo not shown) gave an Inhibition % of 5.37%. With CCc1ccc(OC)c(S(=O)(=O)n2ccnc2C)c1 the Inhibition % was 8.38%. O=C(Oc1cccc(-c2nnco2)c1)N1CCCCC1 showed an Inhibition % of 1.92%. Compound c1ccc(-c2nnnn2CC2CO2)cc1 (stereo not shown) has an Inhibition % of -0.446%. With O=C(N[C@H]1CC[C@@H](CS(=O)(=O)F)C1)C1CCOCC1 (racemic) the Inhibition % was 77.4%. CC1OCCC12CN(C(=O)c1ccc(B(O)O)cc1)CCO2 (stereo not shown) was tested, and the Inhibition % was -0.714%. C=CC(=O)N[C@H]1C[C@@H]1C(F)F gave an Inhibition % of 0.856%. O=C1CC2(CCN(Cc3ccc(Cl)cc3Cl)CC2)N1 showed an Inhibition % of -1.16%. With C=CC(=O)NC1CCC2SCCSC12 (stereo not shown) the Inhibition % was 1.43%. With C=CCNC(=O)C(C#N)=Cc1ccccc1OC the Inhibition % was 10.9%. Work on N#CC=C1CCCCC1 yielded an Inhibition % of 7.63%. C=CC(=O)N1CCN(c2nc3ccccc3o2)C(C)C1 (stereo not shown) gave an Inhibition % of 8.27%. Work on CC1(C)OB(c2cccc(N)c2)OC1(C)C yielded an Inhibition % of 12.8%. N#Cc1ccccc1NC(=O)CN1C(=O)CCC1=O showed an Inhibition % of 8.4%. In the case of CN1CCN(C(=O)C(C#N)=Cc2ccc(F)cc2)CC1.Cl, the Inhibition % is reported as 20.3%. With C=CC(=O)NCC1CCN(c2ccccc2F)C1 (stereo not shown) the Inhibition % was 9.51%. For C=CC(=O)NC1CCCN(Cc2ccnc(C)n2)C1=O (stereo not shown), the Inhibition % was 6.32%. C=CC(=O)N1CCC2CSCC2C1 (stereo not shown) gave an Inhibition % of 8.64%. For C=CC(=O)NC1(c2ccccc2F)CC1, the Inhibition % was 3.52%. For C=CC(=O)NC(c1nnc2ccccn12)C(C)C (stereo not shown), the Inhibition % was 3.07%. Cc1ccn(S(=O)(=O)c2ccc(Cl)cc2Cl)n1 gave an Inhibition % of 2.67%. N#Cc1ncccc1C(F)(F)F gave an Inhibition % of 7.37%. Cc1c(Cl)ccnc1C#N gave an Inhibition % of 8.18%. With Cc1cc(=O)n2c3ccccc3n(CC3CO3)c2c1C#N (stereo not shown) the Inhibition % was 5.28%. C=CC(=O)N[C@H]1C[C@H](c2ccccc2F)C1 showed an Inhibition % of 10.2%. C=CC(=O)N1CCC(C(=O)N2CCCC2)C1 (stereo not shown) was tested, and the Inhibition % was 0.856%. For CC(Cc1c(F)cccc1F)NC(=O)CCl (stereo not shown), the Inhibition % was 7.95%. Work on CC1(C)OB(c2ccc(S(N)(=O)=O)c(C(F)(F)F)c2)OC1(C)C yielded an Inhibition % of 5.87%. Compound Cc1ccc(C=CC(=O)N2CCOCC2)o1 has an Inhibition % of 11.9%. CC(=O)N(c1cccc(C)c1)C1C=CS(=O)(=O)C1 (stereo not shown) was tested, and the Inhibition % was 8.51%. N#CC(=Cc1ccc(N2CCCCC2)cc1)C(N)=O was tested, and the Inhibition % was -0.766%. O=c1onc(-c2cnccn2)n1Cc1ccc(Cl)s1 showed an Inhibition % of 8.4%. Work on O=C1CC2(CCCC2)N1 yielded an Inhibition % of 4.3%. For O=C(O)CC1(CS)CC1, the Inhibition % was 80.8%. For CSc1ccc(C(=O)CCl)cc1NC(C)=O, the Inhibition % was 37.7%. COc1ccc(OC)c(C=C(C#N)C(N)=O)c1 showed an Inhibition % of -2.68%. For CCOc1cc(S(=O)(=O)n2ccc(C)n2)ccc1F, the Inhibition % was 4.42%. Work on C=CC(=O)NC[C@H]1CC(=O)N(C)[C@@H]1c1c(C)nn(C)c1C (racemic) yielded an Inhibition % of 6.04%. C=CC(=O)Nc1ccc2c(OC)nccc2c1 was tested, and the Inhibition % was 11.8%. For O=C(CCl)NCc1ccccc1, the Inhibition % was 13%. With N#Cc1ncccc1N1CCc2ccccc2C1 the Inhibition % was 26.9%. For N#Cc1ccc(N2CCOCC3(CCCC3)C2)cn1, the Inhibition % was 6.43%. With C=CC(=O)N1CCC(C(=O)N(C)OC)CC1 the Inhibition % was -0.807%. For COc1ccc(S(=O)(=O)n2cccn2)c(C)c1C, the Inhibition % was 4.5%. Cn1c(=O)[nH]c2ccc(B3OC(C)(C)C(C)(C)O3)cc21 was tested, and the Inhibition % was 0.0918%. O=C(CCl)COc1ccc(Cl)cc1 showed an Inhibition % of 97.8%. Work on Clc1ccc([C@@H]2CO2)cc1Cl yielded an Inhibition % of 30.1%. Cc1cccc(-n2nnnc2SC2CC(C)OC2=O)c1 (stereo not shown) gave an Inhibition % of 3.51%. With Cc1ccc(C)c(C(=O)Cn2cnc(C#N)n2)c1 the Inhibition % was -2.83%. C=CC(=O)NCCOC1CCCCC1C (stereo not shown) showed an Inhibition % of 10%. C=CC(=O)NCC1CCC2CC1CO2 (stereo not shown) showed an Inhibition % of 4.2%. Compound C=CC(=O)NC1(c2ccc(F)cc2F)CCC1 has an Inhibition % of 0%. C#CC(=O)Nc1ccc(NC(C)=O)cc1C(=O)O showed an Inhibition % of 18.4%. For CC1CCCN(C(=O)CN2CCCCC2C2OCCO2)C1 (stereo not shown), the Inhibition % was -4%. With CCN(C)CC1CCN(S(=O)(=O)C=Cc2ccccc2)C1 (stereo not shown) the Inhibition % was 3.63%. Work on CC(c1cc2ccccc2o1)N(C)C(=O)CCl (stereo not shown) yielded an Inhibition % of 96.1%. In the case of C[C@H]1CN(C2CCOCC2)CCN1c1ccc(S(=O)(=O)F)cn1, the Inhibition % is reported as 5.99%. C=CC(=O)NC1CSC1(C)C (stereo not shown) was tested, and the Inhibition % was 6.84%. Work on Cc1occc1-c1nnc(SC2CCOC2=O)n1C (stereo not shown) yielded an Inhibition % of 12.4%. Work on O=C(CCl)N1CCc2[nH]c3ccccc3c2C1 yielded an Inhibition % of -3.49%. With Cc1cc2ncn(C(=O)N3CCOCC3)c2cc1C the Inhibition % was 1.73%. Nc1ccc(NC(=O)Oc2ccccc2)cc1 was tested, and the Inhibition % was 11.2%. For CC1N(c2cccc(C#N)n2)CCC12CCOCC2 (stereo not shown), the Inhibition % was 6.61%. O=C1SCCN1CCC(=O)N1CCc2ccccc21 gave an Inhibition % of 9.19%. O=C(CCl)Nc1ccc(S(=O)(=O)C(F)F)cc1 gave an Inhibition % of 65.8%. Cn1cc(C=CC(=O)N2CCNC(=O)C2)cn1 was tested, and the Inhibition % was 4.98%. Work on O=C(CN1CCSC1=O)Nc1ccc(Cl)cc1Cl yielded an Inhibition % of 3.69%.

— paper PMC9574860, “Chemical Toolkit for PARK7: Potent, Selective, and High-Throughput” (Journal of Medicinal Chemistry, 2022)
